Reference: PubChem BioAssay (NCATS)
The shares of active, inactive and inconclusive entries below differ from those in the screen. For some assays here: Potencies of inconclusive entries are doubtful fits and often do not repeat. Activity calls are given as the source filed them. Unless noted, calls follow the shape of the dose curve; as a rule, active = well fitted curve in the direction sought with a large enough effect; inconclusive = small, poorly fitted or top-dose-only effect, or another doubt; inactive = no such curve, though single readings can be large; an effect the other way counts as inactive or inconclusive.

What was measured:
[1] = Primary qHTS for inhibitors of nuclear receptor binding SET domain protein 2 (NSD2) in an isogenic RCH-ACV NSD2 p.E1099K mutant (9B) (AID 1645876); also: nearly all actives have a fitted effect of over 70% in size
HEK293 = experiment: Cytotoxic Profiling of Annotated Libraries Using Quantitative High-Throughput Screening (AID 1296008); settings: Five cell lines viability, CellTiter-Glo ATP luminescence, 48-72 h; max response: hits give low values; also: nearly all actives have a fitted effect of over 60% in size; as to max response: % is scaled to controls: 0 for no effect and ±100 for the full control effect
Method in brief: (§1)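 Compounds were pin-transferred onto cells and incubated 48 or 72 hr at 37 degree Celsius, 95% humidity. CellTiter-Glo was added, plates sat 10 min at room temperature, then ATP-coupled luminescence was imaged as the viability read-out.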

HaCat = experiment: as above; settings: Five cell lines viability, CellTiter-Glo ATP luminescence, 48-72 h; max response: hits give low values
Method in brief: as §1

[2] = Primary qHTS for inhibitors of nuclear receptor binding SET domain protein 2 (NSD2) in an RCH-ACV wild type WT cells (2C) (AID 1645877); settings: activity change, negative = cell killing: at 44.9 µM (top of the series); also: nearly all actives have a fitted effect of over 70% in size
[3] = Primary fluorescence-based thiol-reactive (MSTI) qHTS assay for identification of artifact compounds. (AID 1845221);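 also: thiol-reactive compounds lower the probe fluorescence signal; nearly all actives have a fitted effect of over 65% in size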
Method in brief: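 First, 4 uM MSTI in 2% DMSO/PBS pH 7.4 was dispensed; next, compounds were added; then plates sat 1 h at room temperature without light. Finally, emission at 598 nm was recorded.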

KB-3-1 = experiment: Cytotoxic Profiling of Annotated Libraries Using Quantitative High-Throughput Screening (AID 1296008); settings: Five cell lines viability, CellTiter-Glo ATP luminescence, 48-72 h; max response: hits give low values; also: nearly all actives have a fitted effect of over 60% in size; as to max response: % is scaled to controls: 0 for no effect and ±100 for the full control effect
Method in brief: as §1

NIH3T3 = experiment: as above; settings: Five cell lines viability, CellTiter-Glo ATP luminescence, 48-72 h; max response: hits give low values
Method in brief: as §1

PA-1 = experiment: Primary qHTS to identify gynecologic anti-cancer compounds using libraries of approved drugs and bioactive compounds (AID 1345084); settings: Gynecologic cancer cell panel viability, ATPlite luminescence, 48 h; series mostly up to 57.5 µM; also: nearly all actives have a fitted effect of over 55% in size; as to activity change, negative = cytotoxicity: % is scaled to controls: 0 for no effect and ±100 for the full control effect
Method in brief: (§2)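 48 h compound exposure at 37 C, 5% CO2; five-point qHTS. ATPlite luminescence readout of cell ATP.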

OV90 = experiment: as above; settings: Gynecologic cancer cell panel viability, ATPlite luminescence, 48 h; series mostly up to 57.5 µM
Method in brief: as §2

[4] = P-glycoprotein substrates identified in KB-8-5-11 adenocarcinoma cell line, qHTS therapeutic library screen (AID 1346987); also: nearly all actives have a fitted effect of over 65% in size
Method in brief: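 Luminescence from CellTiter-Glo, read 5 min after addition, quantified survival of KB-8-5-11 (P-gp-overexpressing) cells exposed to compounds for 72 h. AC50 was derived from concentration-response curves.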

HeLa = experiment: Primary qHTS to identify gynecologic anti-cancer compounds using libraries of approved drugs and bioactive compounds (AID 1345084); settings: Gynecologic cancer cell panel viability, ATPlite luminescence, 48 h; series mostly up to 57.5 µM; also: nearly all actives have a fitted effect of over 55% in size; as to activity change, negative = cytotoxicity: % is scaled to controls: 0 for no effect and ±100 for the full control effect
Method in brief: as §2

CASKI = experiment: as above; settings: Gynecologic cancer cell panel viability, ATPlite luminescence, 48 h; activity change, negative = cytotoxicity: at 57.5 µM (top of the series)
Method in brief: as §2

C33A = experiment: as above; settings: Gynecologic cancer cell panel viability, ATPlite luminescence, 48 h; series mostly up to 57.5 µM
Method in brief: as §2

CAOV3 = experiment: as above; settings: Gynecologic cancer cell panel viability, ATPlite luminescence, 48 h; series mostly up to 57.5 µM
Method in brief: as §2

Hek293T = experiment: as above; settings: Gynecologic cancer cell panel viability, ATPlite luminescence, 48 h, control line for the selectivity index; series mostly up to 57.5 µM
Method in brief: as §2

SKOV3 = experiment: as above; settings: Gynecologic cancer cell panel viability, ATPlite luminescence, 48 h; series mostly up to 57.5 µM
Method in brief: as §2

Tov112D = experiment: as above; settings: Gynecologic cancer cell panel viability, ATPlite luminescence, 48 h; activity change, negative = cytotoxicity: at 57.5 µM (top of the series)
Method in brief: as §2

[5] = molecular target: Cytochrome P450 2D6 (Homo sapiens) (UniProt P10635); experiment: Cytochrome P450 family 2 subfamily D member 6 (CYP2D6) small molecule antagonists: luciferase biochemical (cell-free) qHTS assay (AID 1645840; active = well fitted curve in the direction sought with a large enough effect in the repeat runs; inconclusive = weak or mixed curves; inactive = no such curve, though single readings can be large; an effect the other way counts as inactive or inconclusive; also: nearly all actives have a fitted effect of over 55% in size)
Sequence of UniProt P10635 (P10635 whole entry, looked up): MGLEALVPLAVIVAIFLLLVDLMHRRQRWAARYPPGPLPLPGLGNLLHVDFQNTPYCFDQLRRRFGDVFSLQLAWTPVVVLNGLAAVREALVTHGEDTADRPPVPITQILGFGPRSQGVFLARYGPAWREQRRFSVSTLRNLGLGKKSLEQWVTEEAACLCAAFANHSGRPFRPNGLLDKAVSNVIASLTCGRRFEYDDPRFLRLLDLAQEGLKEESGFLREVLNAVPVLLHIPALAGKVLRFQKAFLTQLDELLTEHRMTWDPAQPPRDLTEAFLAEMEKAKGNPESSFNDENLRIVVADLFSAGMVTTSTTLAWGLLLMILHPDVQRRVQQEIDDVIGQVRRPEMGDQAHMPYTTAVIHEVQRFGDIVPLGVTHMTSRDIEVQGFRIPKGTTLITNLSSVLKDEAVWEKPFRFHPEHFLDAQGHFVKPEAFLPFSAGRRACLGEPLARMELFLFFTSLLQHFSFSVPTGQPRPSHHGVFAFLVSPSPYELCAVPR
Method in brief: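 P450-Glo CYP2D6 system: proluciferin substrate converted by enzyme to luciferin, read by luminescence proportional to activity. Enzyme-substrate mix with compound 10 min at room temperature, then NADPH regeneration 1 h before detection reagent.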

Tov-21-G = experiment: Primary qHTS to identify gynecologic anti-cancer compounds using libraries of approved drugs and bioactive compounds (AID 1345084); settings: Gynecologic cancer cell panel viability, ATPlite luminescence, 48 h; activity change, negative = cytotoxicity: at 57.5 µM (top of the series); also: nearly all actives have a fitted effect of over 55% in size
Method in brief: as §2

[6] = test system: Zika virus NS2B-NS3 protease (unlinked complex); experiment: Primary screen GU Rhodamine qHTS for Zika virus inhibitors: Unlinked NS2B-NS3 protease assay (AID 1347159); also: nearly all actives have a fitted effect of over 60% in size
Method in brief: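 Percent inhibition came from the 15-min rise in Rhodamine110 fluorescence (1.5 microM substrate, ~15% conversion), normalized to no-inhibitor and no-enzyme wells and Hill-fitted. Unlinked protease, 25 nM, pH 8.0 Tris buffer; compounds up to 114 microM, 15-min preincubation.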
Potency is read from the fitted curve at half-maximal effect; tags tell the direction and shape of the fitted curve.

CCCN1CCN(c2ccc(C(=O)NC3(C(=O)NCC#N)CCCCC3)cc2)CC1
inactive: Potency [1] | max response (HEK293) -5.14% | max response (HaCat) -5.96%

O=C(NC1CCC1)c1ccc(C#Cc2cccc(F)c2)nc1
inconclusive: Potency [2] 5.78 µM [inhibitor, partial curve, poor fit] | Potency (HEK293) 29.1 µM [inhibitor, single point]
inactive: Potency [1] | Potency [3] | max response (HaCat) -7.87%

CC(C)N(CCCNC(=O)Nc1ccc(C(C)(C)C)cc1)C[C@H]1O[C@@H](n2cc(Br)c3c(N)ncnc32)[C@H](O)[C@@H]1O
inconclusive: Potency (HEK293) 25.9 µM [inhibitor, partial curve] | Potency (KB-3-1) 20.6 µM [inhibitor, single point] | Potency (NIH3T3) 29.1 µM [inhibitor, single point] | Potency (PA-1) 7.08 µM [cytotoxic, single point]

C=C1/C(=C/C=C2\CCC[C@]3(C)[C@@H]([C@H](C)/C=C/C(=O)C4CC4)CC[C@@H]23)C[C@@H](O)C[C@@H]1O
active: Potency [1] 16.3 µM
inactive: Potency (OV90)
inconclusive: Potency (HEK293) 20.6 µM [inhibitor, single point] | Potency (KB-3-1) 29.1 µM [inhibitor, single point] | Potency (NIH3T3) 0.0651 µM [inhibitor, full curve]

Cn1c(NC[C@@H](N)Cc2ccccc2)nc(-c2ccncc2)c(-c2ccc3ccccc3c2)c1=O
inconclusive: Potency [4] 29.1 µM [inhibitor, single point] | Potency (HEK293) 20.6 µM [inhibitor, single point] | Potency (KB-3-1) 18.4 µM [inhibitor, single point] | Potency (NIH3T3) 29.1 µM [inhibitor, single point]
active: Potency [1] 18.6 µM
inactive: Potency (HeLa)

CC1CCN(c2cc(NC(=O)c3ccccc3)ncn2)CC1
inconclusive: Potency [1] 10.3 µM [inhibitor, partial curve, poor fit] | Potency [2] 8.17 µM [inhibitor, partial curve] | Potency (HEK293) 29.1 µM [inhibitor, single point] | Potency (KB-3-1) 18.4 µM [inhibitor, single point] | Potency (NIH3T3) 23.1 µM [inhibitor, single point] | Potency (PA-1) 39.8 µM [cytotoxic, single point]
inactive: Potency (CASKI)

COc1ccc(C#Cc2ccc(C(=O)N3CCC[C@@H](O)C3)c(F)c2)cc1
active: Potency (HEK293) 13 µM | Potency (Hek293T) 14.1 µM | Potency (SKOV3) 8.91 µM | Potency (Tov112D) 8.91 µM
inconclusive: Potency [1] 7.28 µM [inhibitor, partial curve] | Potency [2] 7.28 µM [inhibitor, partial curve, poor fit] | Potency (KB-3-1) 8.2 µM [inhibitor, partial curve] | Potency (NIH3T3) 29.1 µM [inhibitor, single point] | Potency (C33A) 7.08 µM [cytotoxic, single point] | Potency (CAOV3) 39.8 µM [cytotoxic, partial curve, poor fit] | Potency (CASKI) 39.8 µM [cytotoxic, single point] | Potency (HeLa) 7.08 µM [cytotoxic, single point] | Potency (OV90) 28.2 µM [cytotoxic, single point] | Potency (PA-1) 14.1 µM [cytotoxic, partial curve]

CC1(C(=O)Nc2ccc(F)nc2)CCCN1c1nc(Nc2cc(C3CC3)[nH]n2)c2cccn2n1 (configuration not stated)
inconclusive: Potency [5] 21.3 µM [inhibitor, single point] | Potency [3] 1.06 µM [inhibitor, full curve, poor fit] | Potency (KB-3-1) 2.59 µM [inhibitor, partial curve] | Potency (CAOV3) 7.08 µM [cytotoxic, partial curve, poor fit] | Potency (CASKI) 7.08 µM [cytotoxic, full curve] | Potency (HeLa) 3.98 µM [cytotoxic, full curve, poor fit] | Potency (PA-1) 6.31 µM [cytotoxic, full curve, poor fit] | Potency (SKOV3) 10 µM [cytotoxic, partial curve, poor fit]
active: Potency (HEK293) 5.17 µM | Potency (NIH3T3) 4.61 µM | Potency (Hek293T) 5.01 µM | Potency (OV90) 3.55 µM | Potency (Tov-21-G) 14.1 µM

CCN1C(C)(C)CC(Oc2ccc(C(=O)Nc3ccc(NC(=O)Nc4cc(C(C)(C)C)on4)cc3)nc2)CC1(C)C
inactive: outcome (NIH3T3)
inconclusive: Potency [4] 18.4 µM [inhibitor, single point] | Potency (HEK293) 6.51 µM [inhibitor, single point] | Potency (KB-3-1) 29.1 µM [inhibitor, single point] | Potency (SKOV3) 10 µM [rising, partial curve, poor fit]

C=CCC1=C[C@]2(OC)[C@H](C)[C@@H](c3ccc(O)c(OC)c3)O[C@]2(OC)CC1=O
inactive: max response (HEK293) 0.3% | max response (KB-3-1) 5.23% | max response (NIH3T3) 0.772% | Potency (SKOV3)
inconclusive: Potency [6] 44.7 µM [inhibitor, partial curve] | Potency [3] 18.5 µM [inhibitor, partial curve]

CN1CCN(c2ccc(Nc3cc(-c4cccc(-n5ccc6cc(C7CC7)cc(F)c6c5=O)c4CO)cn(C)c3=O)nc2)CC1
inconclusive: Potency [4] 29.1 µM [inhibitor, single point] | Potency [5] 26.8 µM [inhibitor, single point] | Potency [2] 0.258 µM [inhibitor, full curve, poor fit] | Potency [3] 2.12 µM [inhibitor, full curve] | Potency (KB-3-1) 29.1 µM [inhibitor, single point] | Potency (NIH3T3) 23.1 µM [inhibitor, single point] | Potency (PA-1) 31.6 µM [cytotoxic, single point]
active: Potency [1] 20.6 µM | Potency (HEK293) 11.6 µM
